The structures appear in SMILES notation.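 Compound exposure: 48 hours, 5 concentrations, 96-well plates. Here, GI50 denotes the concentration required for 50% inhibition of growth. At the TGI there is no net growth.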

This assay deals with NCI-H322M lung. The experiment in a line: inhibition of tumour cell growth, NCI panel, 48 h.

With `CC(=O)O[C@H]1CC(C)(C)C(=C=C/C(C)=C/C=C/C=C/C=C(C)/C=C2C=C(/C=C/[C@@]34O[C@]3(C)C[C@@H](O)CC4(C)C)C(=O)O/2)[C@](C)(O)C1`, the TGI was greater than 100 µM. Same read-out and setting: the value for `C[C@@]1(O)C2CC3CC1(c1ccccc1)CC(/C3=N/O)/C2=N\O` (some centres undefined) was greater than 100 µM; that for `CCCCCOc1ccc(C=Nc2ccc(CCc3ccc(N=Cc4ccc(OCCCCC)cc4)cc3)cc2)cc1` was greater than 100 µM; that for `CCOC(=O)Cc1nc2ccc3c(c2[nH]c1=O)C(=O)c1ccccc1C3=O` was greater than 100 µM.

In turn, `COc1cc(Cl)cc(=O)c(O)c1OC` returned a TGI greater than 100 µM. Consider `Fc1ccc(C(OCCN2CCN(CCCc3ccccc3)CC2)c2ccc(F)cc2)cc1`, for which the TGI is 20.8 µM. Same read-out and setting: the value for `COc1ccc(N2CC(=O)N(C(=O)COc3ccc(OCC(=O)N4C(=O)CN(c5ccc(OC)cc5)C4=S)cc3)C2=S)cc1` was 78.4 µM; that for `Cn1c(=O)c2[nH]c(N/N=N/c3nncs3)nc2n(C)c1=O` was greater than 100 µM; that for `CC(=O)c1c(-c2cccc3ccccc23)c(C#N)c(=S)n(C2OC(CO)C(O)C(O)C2O)c1C` (centres undefined) was greater than 100 µM. Still for that read-out and setting: the figure for `O=c1cc(-c2cccs2)[nH]c2cc3c(cc12)OCO3` is greater than 100 µM; for `CCNCCNC(=O)c1ccc(I)cc1` it is greater than 100 µM. For the compound `O=C(c1ccc2ccccc2c1)c1c(C(F)(F)F)n([O-])c2ccc(C(F)(F)F)cc2[n+]1=O`, the GI50 is 1.79 µM and the TGI was determined as 3.23 µM.

For `N#CC(C#N)=C/C=C(\Cl)c1ccc(Cl)cc1`, the GI50 was 20.3 µM and the TGI was found to be 42.1 µM. Compound `Nc1n(CC(=O)c2ccccc2)nc2sc(-c3ccccc3)n[n+]12` had a TGI of 31.6 µM. Same read-out and setting: the value for `C[N+](C)(C)CCC(=O)CC[N+](C)(C)C` was greater than 100 µM. `C/C(CC(O)(C(F)(F)F)C(F)(F)F)=N\NC(N)=O` came in with a TGI greater than 10 µM. The same measure, in the same setting: the figure for `O=c1oc2ccccc2c2c1Sc1ccccc1N2` is greater than 100 µM; for `CC(C)=CCN1c2ccccc2NC(=O)CC1C` (centres undefined) it is greater than 100 µM; for `CN1CCN(C(=S)N(C)C(=O)c2ccco2)CC1` it is greater than 100 µM. On the same count and under the same terms, the value for `O=C1[C@H](O)[C@@H]2C(O)O[C@H]3[C@@H]2N1C[C@H]3[Si](c1ccccc1)(c1ccccc1)c1ccccc1` (some centres undefined) was greater than 100 µM; that for `Cc1cc2c(C)nn(Cc3ccccc3)c2c(C(=O)O)c1C` was greater than 100 µM. For `Nc1ncn([C@@H]2S[C@H](CO)[C@@H](O)[C@@H]2F)c(=O)n1`, the GI50 is greater than 24.4 µM and the TGI is greater than 100 µM. Consider `COC(=O)c1sc(C(=O)OC)c2c1CS(=O)C2`, for which the TGI is greater than 100 µM.

`CN(C)c1cc2ccccc2oc1=O` returned a TGI greater than 100 µM. The same measure, in the same setting: the figure for `Cc1ccc(S(=O)(=O)SC/C=C\CSS(=O)(=O)c2ccc(C)cc2)cc1` is greater than 100 µM. Regarding `C/C(=N/O)c1cccc(Nc2cc(-n3nnc4ccccc43)nc3ccccc23)c1`, the GI50 was 14.7 µM and the TGI amounted to 60.8 µM. On to `COc1ccc2nccc(C3=CCC4CCN(C(=O)c5ccccc5)C3C4)c2c1` (centres undefined), for which the TGI is greater than 100 µM.

Consider `CNC(C)(C)Cc1ccc(Cl)cc1`, for which the TGI was greater than 100 µM. On to `CCN1C(=O)N(CC)C2C1NN=c1s/c(=C\c3ccc(Cl)cc3Cl)c(=O)n12` (centres undefined), for which the GI50 is 0.0633 µM and the TGI is greater than 100 µM. On the same counts, the results for `CC[O-].CC[O-].O=C([CH-]C(=O)c1ccccc1)CCCCCCCCC(=O)[CH-]C(=O)c1ccccc1.[Ti+4]` are greater than 100 µM and greater than 100 µM. `C=CCSC1=N/C(=C\c2ccc(Cl)cc2)C(=O)N1CC=C` gave a TGI greater than 100 µM. The same measure, in the same setting: the value for `Oc1cccc(Nc2nc3ccccc3c3occc23)c1` was 1.34 µM; that for `O=C(O)CC(Cc1ccccc1Cl)C(=O)O` (centres undefined) was greater than 100 µM.

As to `CC(=O)c1c(C(F)(F)F)n([O-])c2ccccc2[n+]1=O`, the GI50 is 1.95 µM and the TGI was found to be 6.8 µM. `Cc1ccc(Nc2nc3[nH]ccc3c(=O)[nH]2)cc1` gave a TGI greater than 100 µM. `CCc1c2c(nc3ccc(OCc4ccc(B(O)O)cc4)cc13)-c1cc3c(c(=O)n1C2)COC(=O)[C@]3(O)CC`: the GI50 is 0.0992 µM and the TGI is greater than 24.6 µM. In turn, `Cc1ccc(S(=O)(=O)NC(=O)Nc2nnc(S(N)(=O)=O)s2)cc1` yielded a TGI greater than 100 µM.

As to `CCOC(=O)Oc1c(OC)cc(C(=O)c2ccc(OC)c(O)c2OC)cc1OC`, the GI50 is 2.2 µM and the TGI was greater than 100 µM.

Consider `c1ccc(-c2csc3c4ccccc4c4ccccc4[n+]23)cc1`, for which the TGI was 35.8 µM.

In the case of `COC1=NCc2ccccc2-c2ccccc21`, the TGI is greater than 100 µM. Same read-out and setting: the figure for `O=C(O)CN(CC(=O)O)C1CCCCC1N1CC(=O)OC(=O)C1` (centres undefined) is greater than 100 µM; for `C#CCNC(CSSCC(N)C(=O)O)C(=O)O` (centres undefined) it is greater than 100 µM. The same measure, in the same setting: the figure for `CC1=NNC(=O)C1C1C(=O)NN=C(c2c[nH]c3ccccc23)C1Br` (centres undefined) is greater than 100 µM.

The compound `CC1=C(C(=O)Nc2ccccc2C)C(c2ccc(Cl)cc2)C(C(=O)Nc2ccccc2C)=C(C)N1` yielded a TGI greater than 100 µM. Still for that read-out and setting: the value for `CN1N=CSC12C(=O)N(c1ccccc1)C(=O)N2c1ccccc1` (centres undefined) was greater than 100 µM. The same measure, in the same setting: the figure for `COc1cc(C2c3c(ccc4ccccc34)C(=O)C3CCC(=O)N32)cc(OC)c1OC` (centres undefined) is greater than 50 µM. On to `COc1cc(C)ccc1C(=O)c1ccc(C)cc1OC`, for which the GI50 was 6.93 µM and the TGI is greater than 100 µM. `CCOC(=O)C(C#N)(Cc1c[nH]c2ccccc12)NC(C)=O` (centres undefined): the TGI was greater than 100 µM.

As to `CCOc1ccccc1CCN=C1NC(=O)/C(=C/c2ccc3ncccc3c2)S1`, the GI50 was 1.26 µM and the TGI is greater than 25 µM. On the same counts, the results for `Cc1c2cnccc2c(C)c2c1c1cc(C#N)ccc1n2C` are 0.138 µM and 1.1 µM.

For the compound `CCC1(O)C(=O)OCc2c1cc1n(c2=O)Cc2cc3ccccc3nc2-1` (centres undefined), the TGI stood at 0.943 µM. On the same count and under the same terms, the value for `O=c1[nH]c2nc3ccccc3c(=O)n2/c1=C/c1ccc(Cl)cc1` was greater than 100 µM. In turn, `COC(=O)/C(=N\NC(C)(C)C)C(C(=O)OC)C(=O)C(=O)Nc1cc(Cl)ccc1Cl` (centres undefined) gave a TGI greater than 100 µM. Still for that read-out and setting: the figure for `COC(=O)[C@H]1C=NN[C@@H]1C(=O)N1[C@H]2CC3CC[C@@]2(CS1(=O)=O)C3(C)C` is greater than 100 µM; for `COC1CC(N)(c2ccccc2)C(O)C(C)O1` (centres undefined) it is greater than 100 µM. The same measure, in the same setting: the value for `c1ncn(C23C4C5C6C4C2C6C53)n1` (centres undefined) was greater than 100 µM; that for `CC(C)/C(Cl)=N/OC(=O)Nc1ccc(Br)cc1` was 28.5 µM; that for `CCC/C(Cl)=N\OC(=O)Nc1ccc(F)cc1` was greater than 100 µM. On the same count and under the same terms, the value for `O=[N+]([O-])c1ccccc1OCCOc1ccccc1[N+](=O)[O-]` was greater than 100 µM. Turning to `COc1cc2c(c3c1c(=O)c1ccccc1n3C)C=CC1(CCCC1)O2`, the TGI was determined as 27.7 µM. The same measure, in the same setting: the figure for `CCOC(=O)NC(=O)c1cn(CCN2CCN(C(=O)NCCCCCCNC(=O)N3CCN(CCn4cc(C(=O)NC(=O)OCC)c(=O)[nH]c4=O)CC3)CC2)c(=O)[nH]c1=O` is greater than 100 µM; for `COC(=O)C1(NC(=O)C(CC(=O)OCc2ccccc2)NC(=O)OCc2ccccc2)CCCCCC1` (centres undefined) it is greater than 100 µM. Same read-out and setting: the figure for `O=C(Nc1ccccc1F)c1cc2ccc(O)cc2oc1=Nc1cccc(F)c1` is 15.9 µM; for `C[C@@H](NC(C#N)c1ccco1)c1ccccc1` (some centres undefined) it is greater than 100 µM. Still for that read-out and setting: the figure for `Cn1c(=O)c2c(nc3n(CC(O)CCl)c(=O)ccn23)n(C)c1=O` (centres undefined) is greater than 100 µM. Turning to `CCOC(=O)c1c(C)n(Cc2ccc(Cl)cc2Cl)c2c1cc(O)c1[nH]c3c(c12)CCCC3`, the TGI came out at 37.7 µM. As for `S=C1c2ccc(Cl)cc2-n2cnnc2C2CSCN12` (centres undefined), the TGI was greater than 100 µM. Same read-out and setting: the figure for `N=C1C(O)C2(I)c3ccccc3N3C(=N)C(O)C4c5ccccc5N1C4C32` (centres undefined) is greater than 100 µM.

`Nc1nc2ccc(-c3nc4ccc5[nH]ncc5c4c4c3CCC4)cc2s1`: the GI50 is 1.05 µM and the TGI was found to be 6.07 µM. Take `O=C(COc1ccccc1Cl)N1N=C(c2ccc(Cl)cc2)CC1(O)c1ccccc1` (centres undefined): the TGI is greater than 100 µM. In the case of `CCCCN(CCCC)Cc1cc(Nc2ccnc3cc(Cl)ccc23)ccc1O`, the GI50 was 5.12 µM and the TGI was greater than 100 µM. For `O=C1OCC2=C1C(c1cccc(F)c1)c1cc3c(cc1N2CCO)OCO3` (centres undefined), the GI50 was 4.01 µM and the TGI is greater than 50 µM. With `C[C@H](c1ccccc1)N1C(=O)[C@@H](O)[C@H]1[C@H](CO)OCc1ccccc1`, the TGI was greater than 100 µM. On to `CCO/C(=N/S(=O)(=O)C(F)(F)F)N(C(C)C)C(C)C`, for which the TGI was greater than 100 µM.

For the compound `C=CCc1c(Cl)nc(Cl)nc1Cl`, the TGI came out at 1.42 µM. `O=C(NCC1CC1)c1ccc(-c2cccc(C(=O)NC3CC3)c2)cc1`: the GI50 was greater than 25 µM and the TGI is greater than 25 µM. The compound `O=C1c2cccc([N+](=O)[O-])c2C(=O)N1Cc1ccccc1` returned a TGI greater than 100 µM.

On to `CCN(CCCOc1ccccc1)CCN(CC)CCCOc1ccccc1`, for which the TGI was 30.6 µM. The same measure, in the same setting: the figure for `CN(C(=O)/C=C/c1ccccc1)C1C2CN3CCC(O2)C13` (centres undefined) is greater than 100 µM.

`COc1ccc2c(c1)C(=O)/C(=C/c1cccc(OCC(=O)c3ccccc3)c1)CC2`: the GI50 is greater than 100 µM and the TGI was greater than 100 µM. For `CN(C)CCNc1ccc2c(=O)n(CCN(C)C)c(=O)n3c4ccc(O)cc4c(=O)c1c23`, the TGI was 0.258 µM. For the compound `c1cc[c]([Sn][c]2ccccc2)cc1`, the GI50 was 21.3 µM and the TGI came to 48.2 µM.

The compound `Cc1ccc(C)c(NC(=O)C(=O)C(C(=O)c2ccc3ccccc3c2)C2OC(=O)c3ccccc32)c1` (centres undefined) yielded a TGI of 57.4 µM. Still for that read-out and setting: the figure for `O=C1CC(CC(=O)C2CCCCC2=O)C(=O)N1` (centres undefined) is greater than 100 µM. The compound `C=CCOC(=O)N1c2ccc(O[Si](C)(C)C(C)(C)C)cc2[C@@]23O[C@@]24[C@@H]1C#C/C=C\C#C[C@]3(O)C(OC)(OC)C[C@@H]4C` had a TGI greater than 100 µM. `CCSCCCSCCSCC` had a TGI greater than 100 µM. Same read-out and setting: the value for `CN(C)CC(O)c1ccc(Cl)c2ccccc12` (centres undefined) was greater than 100 µM. Turning to `Cn1c(=O)nc2n(-c3ccc(O)cc3)c3ccccc3nc-2c1=O`, the TGI is greater than 100 µM. Still for that read-out and setting: the value for `Cn1c(=O)c(N=Nc2c(=O)n(C)c(=O)n3c2[nH]c2ccccc23)c2[nH]c3ccccc3n2c1=O` was greater than 100 µM; that for `O=C1C2C3C=C4c5ccccc5N(c5ccccc5)C4(C2C(=O)N1c1ccccc1)C1C(=O)N(c2ccccc2)C(=O)C31` (centres undefined) was greater than 100 µM. On the same count and under the same terms, the figure for `c1ccc(/C(=N/Nc2nc3ccccc3s2)C2CCCCC2)nc1` is 26.3 µM.

For the origin of these results see PubChem BioAssay (NCI).
